The structures appear in SMILES notation. The full ranking holds about 13,000 compounds; the median of “IFI” is about 4, and the highest 2% start at about 17. The list shows a part of the results.

This assay can be described thus: GSK_TCMDC: Inhibition Frequency Index (IFI). The number of non-kinase HTS assays where a compound showed > 50 % inhibition, expressed as a percentage of the number of such assays in which the compound was tested (-0 is zero). The assay is classed as functional.
`CCN(CC)CCN(Cc1ccc(-c2ccc(Cl)cc2)cc1)C(=O)Cn1c(CCc2cccc(F)c2F)nc(=O)c2ccccc21` gave an IFI of 8.33%.
The result for `O=C(/C=C/c1ccc(Cl)c(Cl)c1)NCCCCCN1CCC(NC(=O)Nc2ccc(Br)cc2)CC1` reads 8.61%.
`O=C(N[C@@H](Cc1ccccc1)C(=O)NCCN1CCOCC1)c1ccc(O)c(-c2ccc(Cl)c(Cl)c2)c1` came in with an IFI of 0.74%.
The compound `CCN(CC)CCNC(=O)c1ccc(Nc2ncc([N+](=O)[O-])c(Nc3ccccc3OC)n2)cc1` showed an IFI of 10.9%.
In turn, `CCOc1ccccc1C(=O)Nc1cccc(-c2nc3ncccn3c2C)c1` showed an IFI of 1.71%.
The result for `CN(CCCCN)Cc1ccc(-c2ccc(Cl)cc2)cc1` reads 4.44%; that for `CC1(C)CC(NCCCCCCCOc2ccc(OCc3ccccc3)cc2)CC(C)(C)N1`, 16.8%; that for `O=C(Nc1ccc(Cl)cc1)N[C@H]1CCN(CCCCCNC(=O)C2CC2c2ccc(Cl)c(Cl)c2)C1` (stereo partly drawn), 11.5%.
The result for `CCn1c(Cc2ccccc2)nnc1SCC(=O)N1c2ccccc2Sc2ccccc21` reads 6.19%.
In turn, `CCNc1cc(C(=O)N[C@@H](Cc2ccccc2)[C@H](O)CNC2CCC(F)(F)CC2)c(F)c(N2CCCCS2(=O)=O)c1` registered an IFI of 2.96%.
The result for `CN1CCN(CCCN(Cc2ccc(-c3cccc(CNCc4ccc5c(c4)OCO5)c3)cc2)C(=O)NCCc2ccccc2)CC1` reads 7.69%; that for `CC(=O)Nc1ccc(C(=O)Nc2cccc(-c3ccc(-c4nc5cc(C(F)(F)F)ccc5[nH]4)cc3)c2)cn1`, 3.7%; that for `COc1c(CNCCCCCCNCc2c(OC)c(OC)c3ccccc3c2OC)c(OC)c2ccccc2c1OC`, 21.3%.
The result for `CN(C)c1ccc(-c2cscc2C(=O)NC2CCCN(Cc3cccnc3)C2)cc1` (stereo not drawn) reads 0%; that for `O=C1CCCN1CCCNCc1ccc(-c2ccc(-c3nc4cc(F)ccc4[nH]3)s2)cc1`, 3.88%.
The result for `Cc1c(CCc2cccc(F)c2F)[nH]c2ccccc2c1=O` reads 3.01%; that for `CC1(C)CN(CCC2CCC(NC(=O)/C=C/c3ccc(F)cc3F)CC2)Cc2ccc(C#N)cc21` (stereo not drawn), 0.76%; that for `CC1c2cccc(O)c2CCN1CCc1ccc(Cl)c(Cl)c1` (stereo not drawn), 6.47%.
For `Nc1nc(N)c2cc(S(=O)(=O)c3ccc4ccccc4c3)ccc2n1`, the IFI was 3.65%.
The result for `COc1ccccc1CNc1ccnc(NCCc2cccc(C(F)(F)F)c2)n1` reads 16%; that for `CCC1(C)N=C(N)N=C(N)N1c1ccccc1` (stereo not drawn), -0%.
The result for `COc1cccc(Cn2ccc3c4c(N)nc(N)nc4ccc32)c1` reads 5.74%; that for `CCc1ccc(Cc2cnc3nc(N)nc(N)c3c2C)cc1`, 3.25%.
As to `Nc1ncc(Cc2cc(Cl)c(N)c3ncccc23)c(N)n1`, the IFI was determined as 2.9%.
The result for `COc1ccc(NC(=O)[C@H](CC(C)C)Nc2cc(C)nc(Nc3ccccc3)n2)cc1` reads 4.76%; that for `CCN1CCN(C(=O)NC(C(=O)N(C)Cc2ccc(-c3ccc(C(F)(F)F)cc3)cc2)c2cccs2)C(=O)C1=O` (stereo not drawn), 2.7%.
The result for `CC(C)(C)c1ccc(Cn2c(=N)n(CC(=O)c3ccc(-c4ccccc4)cc3)c3ccccc32)cc1` reads 11.8%; that for `CCCOc1ccc(OCCCON2C(=N)N=C(N)NC2(C)C)cc1`, 6.47%.
`Fc1ccc2[nH]c(-c3cccc(-c4ccc(CNCCc5ccncc5)cc4)c3)nc2c1` came in with an IFI of 9.71%.
The result for `Cc1cccc2nc(-c3ccc(-c4ccc(C(=O)NCCN5CCCC5)cc4)s3)[nH]c12` reads 4.55%; that for `CC1(C(=O)Nc2ccc([N+](=O)[O-])cc2O)CC2c3ccccc3C1c1ccccc12` (stereo not drawn), 17.4%.
The result for `CC(C)(C)C1=CC(=NNC(=O)c2ccncc2)C=C(C(C)(C)C)C1=O` reads 11.8%; that for `NC(=O)C1CCN(Cc2ccc(-c3cccc(-c4nc5cc(F)ccc5[nH]4)c3)cc2)CC1`, 0%.
The result for `CCN(CC)/C(=N\CCCCCC/N=C(\NC(=N)c1ccc(Cl)cc1)N(CC)CC)NC(=N)c1ccc(Cl)cc1` reads 12.2%; that for `O=C(NCC1CCN(CC2CCCCC2)C1)c1cc(-c2cccc(C(F)(F)F)c2)cs1` (stereo not drawn), 10%.
`Cc1cc(N)c2cc(NC(=O)c3cc(C(F)(F)F)cc(C(F)(F)F)c3)ccc2n1` came in with an IFI of 9.46%.
The result for `Oc1ccc2c(CNC3CCCCC3)c(O)ccc2c1CNC1CCCCC1` reads 9.52%; that for `CN(C)c1cc(NN=Cc2cc(Cl)ccc2O)nc(N(C)C)n1`, 2.96%; that for `N#Cc1ccc(N(CCOC(=O)c2ccc(Br)s2)Cc2ccccc2C(F)(F)F)cc1C(F)(F)F`, 0.7%.
The result for `NC1=NC(c2ccccc2)(c2ccccc2)C(=O)N1Cc1ccccc1Br` reads 4.65%; that for `O=C(/C=C/c1ccc(Cl)c(Cl)c1)NCCCCCN1CCN(C(=O)Nc2ccc(C(F)(F)F)cc2)CC1`, 5.96%.
The result for `Cc1cccc(Cn2c(Cc3ccccc3)nnc2Sc2ccc([N+](=O)[O-])c(C#N)c2)c1` reads 4.14%.
`O=C(Nc1ccc(Cl)cc1)c1ccc(CN2CCCN(Cc3ccccc3)CC2)cc1` returned an IFI of 11%.
The result for `O=C(Nc1ccc2c(c1)CCN2C1CCN(Cc2cccc3cc[nH]c23)C1)c1ccco1` (stereo not drawn) reads -0%; that for `Cc1csc(-c2nc(NCc3cccnc3)ncc2-c2ccsc2)n1`, 4.44%; that for `O=C(Nc1ccc(-c2nc3ccccc3[nH]2)cc1)C1CCN(Cc2ccc(F)cc2)CC1`, 2.38%.
The result for `COc1ccc(Br)cc1/C=C/C(=O)Nc1ccc2c(c1)CCCN(C)C2` reads 3.39%; that for `CC(C)N1CCC(N(Cc2ccc(-c3ccc(Cl)cc3)cc2)C(=O)Cn2c(CCc3cccc(F)c3F)cc(=O)c3ccccc32)CC1`, 6.99%.
The result for `CCCCCN1CCCC(NS(=O)(=O)c2ccc(C(=O)Nc3cccc(C(F)(F)F)c3)cc2)C1` (stereo not drawn) reads 4.12%; that for `CC1CCCC(NC(=O)CCOc2ccccc2)C1` (stereo not drawn), 0.75%.
In turn, `CN1CCN(Cc2ccc(-c3cc4nccc(Nc5ccc(Oc6ccccc6)cc5)c4cc3Cl)o2)CC1` came in with an IFI of 2.27%.
`Cn1cncc1C(=O)Nc1cccc(-c2ccc(-c3nc4cc(C(F)(F)F)ccc4[nH]3)cc2)c1` returned an IFI of 4.42%.
With `c1cc(CN2CCc3ccccc3CC2)cc(-c2c[nH]c3nc(NC4CCCC4)ncc23)c1`, the IFI is -0%.
The result for `Cc1cc(C(=O)Nc2ccc3c(c2)CCN3C2CCN(Cc3csc4ccccc34)C2)no1` (stereo not drawn) reads -0%; that for `CCc1cc2c(Sc3nc4ccccc4[nH]3)ncnc2s1`, 3.33%; that for `Cc1onc(-c2c(Cl)cccc2Cl)c1C(=O)NC1=NC(C)(C)ON1c1ccccc1`, 2.63%.
The result for `COCCNCc1cccc(-c2cc3nccc(Nc4ccc(Oc5ccccc5)cc4)c3cc2Cl)c1` reads 6.87%; that for `Cc1cnccc1/C=C/c1cccc(OCCCN2CCc3ccc(S(C)(=O)=O)cc3CC2)c1`, 0%.
